Laboratory results taken from US7205333B2 (priority 2000, dated 2007).

Columns and labels:
Test in all cases: Inhibition of cytopathic effect (CPE) of influenza virus replication in MDCK cells
Conditions in all cases: read-out: IC50 nM per ZMV equiv
A/Sydney/5/97 = tested on: A/Sydney/5/97
Protocol: (§1) The trimeric compound of Example 3 was tested for its ability to inhibit the replication of influenza A and influenza B virus, essentially following the standard method described in the literature (see for example Watanabe et al, J. Virological Methods, 1994 48 257). The assay was carried out using MDCK cells and three different influenza virus strains, two influenza A and one influenza B, and the results are shown in Table 1. The results are shown as IC50, the minimum compound concentration which inhibits cytopathic effect by 50% [(μg/ml)], calculated by using a regression analysis program for semi-log curve fitting. […] The therapeutic index for the compounds can be calculated by dividing the minimum cytotoxic drug concentration (MTC) by the ID50.

B/Harbin/7/95 = tested on: B/Harbin/7/95
Protocol: as §1

A/Victoria/3/75 = tested on: A/Victoria/3/75
Protocol: as §1

## CC(=O)N[C@H]1[C@H]([C@H](OC(=O)NCCCCCCN)[C@H](O)CO)OC(C(=O)O)=C[C@@H]1NC(=N)N [Compound (2) TFA2, 5-acetamido-7-(6-aminohexylcarbamoyloxy)-4-guanidino-2,3,4,5-tetradeoxy-D-glycero-D-galacto-non-2-enopyranosonic acid]
A/Sydney/5/97
  IC50: 588 nM
B/Harbin/7/95
  IC50: 259 nM
A/Victoria/3/75
  IC50: 52.7 nM

## CC(=O)N[C@H]1[C@H]([C@H](O)[C@H](O)CO)OC(C(=O)O)=C[C@@H]1NC(=N)N [Zanamivir, 4-guanidino-2-deoxy-2,3-dehydro-N-acetylneuraminic acid, reference compound]
A/Sydney/5/97
  IC50: 77.7 nM
B/Harbin/7/95
  IC50: 31.2 nM
A/Victoria/3/75
  IC50: 73.9 nM
